Hit rate of the full screen: of about 310,000 compounds, about 14,000 (4.5%) showed an effect of 50% or more. Effects have a minus sign here. Some of the results follow.
Each molecule was assayed against human ether-à-go-go-related gene (hERG) potassium channel (human, UniProt Q12809) (assay: primary screen, population patch clamp on CHO cells stably expressing hERG).
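Further: peak tail current of the secondary pulse compared with the same well before compound.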

Sequence of human ether-à-go-go-related gene (hERG) potassium channel (Q12809 whole entry, looked up): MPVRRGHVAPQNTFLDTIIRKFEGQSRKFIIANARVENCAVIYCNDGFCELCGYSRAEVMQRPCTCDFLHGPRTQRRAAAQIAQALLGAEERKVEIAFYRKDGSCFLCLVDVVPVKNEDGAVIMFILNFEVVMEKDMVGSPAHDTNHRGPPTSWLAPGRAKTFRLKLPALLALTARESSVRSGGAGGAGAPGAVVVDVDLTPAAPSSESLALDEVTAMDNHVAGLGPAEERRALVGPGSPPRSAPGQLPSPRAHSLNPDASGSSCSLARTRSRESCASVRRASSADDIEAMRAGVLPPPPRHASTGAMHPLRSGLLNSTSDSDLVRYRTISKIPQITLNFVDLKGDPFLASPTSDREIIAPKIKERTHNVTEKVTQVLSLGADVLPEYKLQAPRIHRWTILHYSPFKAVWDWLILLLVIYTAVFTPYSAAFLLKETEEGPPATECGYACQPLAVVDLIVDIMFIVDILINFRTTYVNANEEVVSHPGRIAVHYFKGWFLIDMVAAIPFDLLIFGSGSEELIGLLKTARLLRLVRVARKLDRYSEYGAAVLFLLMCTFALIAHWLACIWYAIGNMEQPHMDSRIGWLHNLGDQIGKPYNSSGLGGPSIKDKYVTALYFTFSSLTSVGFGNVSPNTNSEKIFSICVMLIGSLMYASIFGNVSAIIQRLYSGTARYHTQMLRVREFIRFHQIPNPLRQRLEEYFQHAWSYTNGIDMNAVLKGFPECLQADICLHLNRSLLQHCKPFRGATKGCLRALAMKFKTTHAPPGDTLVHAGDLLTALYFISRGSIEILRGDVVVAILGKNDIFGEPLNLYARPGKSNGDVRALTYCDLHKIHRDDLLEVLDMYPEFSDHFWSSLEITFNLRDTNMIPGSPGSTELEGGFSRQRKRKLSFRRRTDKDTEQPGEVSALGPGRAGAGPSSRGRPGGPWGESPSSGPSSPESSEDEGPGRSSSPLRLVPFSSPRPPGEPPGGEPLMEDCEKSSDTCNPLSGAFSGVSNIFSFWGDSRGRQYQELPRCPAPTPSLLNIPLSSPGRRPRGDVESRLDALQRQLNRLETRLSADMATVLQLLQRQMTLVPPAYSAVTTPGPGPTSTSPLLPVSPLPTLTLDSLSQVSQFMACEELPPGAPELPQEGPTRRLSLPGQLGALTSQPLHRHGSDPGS

| SMILES | hERG current change (%, negative = inhibition) at 10uM |
| --- | --- |
| CC(=O)c1ccccc1OCCCN1CCCCC1.O=C(O)C(=O)O | -31.8% |
| N/C(=N\S(=O)(=O)c1cc(C(F)(F)F)cc(C(F)(F)F)c1)c1cccs1 | 4.04% |
| CCOC(=O)N1CCN(C(=O)CN(c2cc(Cl)ccc2OC)S(=O)(=O)c2ccccc2)CC1 | -19.4% |
| CSCCC1NC(=O)N(CC(=O)Nc2cccc3ccccc23)C1=O (centres unmarked) | 9.36% |
| CC(NC(=O)c1cccc(N2CCCC2=O)c1)c1ccc2c(c1)OCCO2 (centres unmarked) | -8.45% |
| CN(Cc1nc(Cc2cccc(F)c2)no1)CC1CCOCC1 | -5.15% |
| COc1ccc(OC)c(S(=O)(=O)Nc2ccc(-c3ccc4nnc(C)n4n3)cc2)c1 | -40.9% |
| COc1ccc(CCNC(=O)C(=O)NN=C2CCCCCCC2)cc1OC | 3.73% |
| Cc1c(C)c2ccc(OCC(=O)NCCc3c[nH]c4ccccc34)c(C)c2oc1=O | 5.65% |
| COc1ccc(C(C)NC(=O)c2ccc(Br)cc2)cc1OC (centres unmarked) | 6.85% |
| Cc1oc(-c2ccc(Cl)cc2)nc1CN1CCC(C(=O)N2CCc3ccccc3C2)CC1 | -74% |
| Cc1csc2c(=O)sc(NC(=O)c3ccco3)nc12 | 10.4% |
| Cc1cc(C)nc(N(C#N)S(=O)(=O)c2ccccc2Cl)n1 | 4.83% |
| COc1ccc(N(CC(=O)N/N=C/c2ccc(N(C)C)cc2)S(=O)(=O)c2ccccc2)cc1 | 14.5% |
| COc1ccc2oc(C(=O)NCCC(C)C)c(C)c2c1 | -0.78% |
| O=C(OCCOc1cccc(Cl)c1)c1ccc2ncsc2c1 | 8.09% |
| CC1c2cc3c(cc2CCN1C(=O)c1ccc(C(F)(F)F)cc1)OCCCO3 (centres unmarked) | -9.34% |
| Cc1cccc(C(=O)OCC(=O)c2cccc(Br)c2)c1O | 8.72% |
| COc1ccc(C(C(=O)NC2CCCCC2)N(C(=O)c2sc(C)nc2C)c2ccccc2)cc1 (centres unmarked) | 16.4% |
| Cc1nc2ccccc2c(C)c1CC(=O)OC(C)C(=O)NC1(C#N)CCCCC1 (centres unmarked) | -1.38% |
| O=C(NNC(=O)c1cnccc1C(F)(F)F)c1ccccc1 | -1.02% |
| CCOc1ccc(C(C)=O)cc1COC(=O)c1cc([N+](=O)[O-])ccc1N1CCOCC1 | -15% |

| SMILES | hERG current change (%, negative = inhibition) at 10uM |
| --- | --- |
| CCOc1cccc(/C=N/NS(=O)(=O)c2ccc(C)c([N+](=O)[O-])c2)c1O | 21.3% |
| Cc1c(NC(=S)Nc2ccccc2)c(=O)n(-c2ccccc2)n1C | 32.9% |
| O=C(CCN1C(=O)/C(=C/c2cccs2)SC1=S)Nc1ccc(C(=O)O)c(O)c1 | 17.8% |
| O=C(/C=C/c1ccc(F)cc1)Nc1ccc2[nH]c(=O)[nH]c2c1 | 5.92% |
| CC(C)Oc1ccc(C(CC(=O)O)NC(=O)Cc2ccccc2)cc1 (centres unmarked) | 22.1% |
| CC(=O)Nc1cccc(N2C(=O)CCC2=O)c1 | 15.7% |
| O=C(/C=C/c1ccccn1)c1cc(Cl)cc(Cl)c1O | -1.41% |
| O=C(Nc1cccn2ncnc12)C(Cl)Cl | 11.1% |
| CCOC(=O)C1CCN(C(=O)Nc2ccc(Cl)cc2Cl)CC1 | 22.2% |
| CC1CCN(c2nc(-c3ccc(F)cc3)cc(C(F)(F)F)n2)CC1 | 15.6% |
| COc1ccc(S(=O)(=O)NCc2ccc(C(=O)NCCCN3CC(C)CC(C)C3)cc2)cc1 (centres unmarked) | -28.1% |
| COc1ccc(C2=NN(C(=O)CCC(=O)O)C(c3ccc(Br)cc3)C2)cc1 (centres unmarked) | 29.9% |
| O=c1oc2ccccc2c(NCc2ccc(Cl)cc2)c1[N+](=O)[O-] | 6.7% |
| Cc1sc2ncn(CC(=O)NCCCC(=O)NCc3ccc(F)cc3)c(=O)c2c1C | -3.55% |
| Cc1ccc(S(=O)(=O)Nc2cc(C)nn2-c2ccccc2)cc1 | 9.75% |
| Cc1ccc(CNC(=O)C2CCCN(S(=O)(=O)c3c(C)n[nH]c3C)C2)cc1 (centres unmarked) | -3.47% |
| O=C(NCC1CCCO1)c1cccc(N2CCCC2=O)c1 (centres unmarked) | 7.82% |
| CCN(CC)c1ccc(NC(=O)COC(=O)c2cccs2)cc1.O=S(=O)(O)O | -9.32% |
| O=C(Nc1ccc(SC(F)F)cc1)C1=CC=CN2CCS(=O)(=O)N=C12 | -40.1% |
| Cc1ccc2nc3c(nc2c1C)CCCC3 | 0.0719% |
| Cc1nn(-c2ccccc2)c2c1cc1c(=O)n(C)c(=O)nc-1n2-c1ccccc1F | -5.94% |
| O=C(COc1ccccc1)N(Cc1nnc(-c2ccccc2Cl)o1)C1CC1 | -15% |
